Source: PMC4336329 (PLoS ONE, 2015)
Among all 310,000 compounds or so, about 14,000 (4.5%) showed an effect of 50% or more. The effect is printed as a negative number. The list shows a part of the results.

Molecular target: human ether-à-go-go-related gene (hERG) potassium channel (human, UniProt Q12809)
Assay: primary screen, population patch clamp on CHO cells stably expressing hERG
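Further: peak tail current of the secondary pulse compared with the same well before compound.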

Chain of human ether-à-go-go-related gene (hERG) potassium channel (Q12809 whole entry, looked up): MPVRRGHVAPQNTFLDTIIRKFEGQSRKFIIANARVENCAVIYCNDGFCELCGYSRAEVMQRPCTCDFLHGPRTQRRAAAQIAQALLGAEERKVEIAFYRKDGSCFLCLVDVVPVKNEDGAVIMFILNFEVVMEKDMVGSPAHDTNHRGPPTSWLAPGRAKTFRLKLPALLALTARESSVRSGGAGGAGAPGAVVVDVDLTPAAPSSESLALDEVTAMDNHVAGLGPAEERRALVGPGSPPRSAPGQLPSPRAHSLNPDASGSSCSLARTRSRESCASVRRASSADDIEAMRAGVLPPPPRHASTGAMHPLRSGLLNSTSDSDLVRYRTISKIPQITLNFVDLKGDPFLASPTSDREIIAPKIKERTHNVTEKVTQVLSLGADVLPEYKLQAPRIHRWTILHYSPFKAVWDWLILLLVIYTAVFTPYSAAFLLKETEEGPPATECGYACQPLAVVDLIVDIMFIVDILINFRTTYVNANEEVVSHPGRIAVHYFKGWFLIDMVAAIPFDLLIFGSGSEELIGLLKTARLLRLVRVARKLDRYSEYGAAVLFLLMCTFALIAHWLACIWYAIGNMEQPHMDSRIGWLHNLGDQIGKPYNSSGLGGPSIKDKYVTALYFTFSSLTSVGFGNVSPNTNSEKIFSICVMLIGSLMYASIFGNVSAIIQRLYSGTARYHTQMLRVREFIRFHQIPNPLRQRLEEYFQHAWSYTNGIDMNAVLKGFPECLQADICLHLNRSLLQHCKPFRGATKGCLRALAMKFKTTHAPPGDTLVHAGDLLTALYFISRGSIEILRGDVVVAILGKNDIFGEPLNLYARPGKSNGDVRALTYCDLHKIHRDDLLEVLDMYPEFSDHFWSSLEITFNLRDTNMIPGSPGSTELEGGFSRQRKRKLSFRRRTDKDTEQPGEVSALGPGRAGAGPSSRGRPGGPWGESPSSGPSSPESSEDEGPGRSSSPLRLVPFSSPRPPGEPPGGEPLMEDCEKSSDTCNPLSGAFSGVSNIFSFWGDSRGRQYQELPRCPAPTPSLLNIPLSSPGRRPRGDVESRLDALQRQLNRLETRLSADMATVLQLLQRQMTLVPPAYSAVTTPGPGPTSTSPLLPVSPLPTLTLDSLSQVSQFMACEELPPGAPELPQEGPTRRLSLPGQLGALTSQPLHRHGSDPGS

SMILES	hERG current change (%, negative = inhibition) at 10uM
O=S(=O)(NNC(=S)NCC1CCCO1)c1cc(Cl)ccc1Cl (centres unmarked)	9.42%
CCCSc1ccc([C@@H]2[C@@H]3C(=O)N(C)C(=O)[C@@H]3[C@]3(C(=O)OC)CCCCN23)cc1OC.O=C(O)C(F)(F)F	-11.4%
COCCNC(=O)c1c(N)n(CCCn2ccnc2)c2nc3ccccc3nc12	6.86%
C(=C\c1nc(-c2ccncc2)no1)/c1ccccc1	2.94%
CC(CC(=O)Nc1ccc2c(c1)OCCO2)c1ccccc1 (centres unmarked)	11.9%
O=C(NC(Cc1ccccc1)C(=O)O)/C(=C\c1ccco1)NC(=O)c1ccco1 (centres unmarked)	13.5%
CCS(=O)(=O)N1CCc2nc(-c3ccccc3)sc2C1	-23.2%
CCn1c(O)c(N=NC(=O)Cc2csc(N3CCOCC3)n2)c2ccccc21	-14.4%
Cc1cc(NCc2ccccn2)ccc1Br	-16.5%
CCCNC(=O)NC1C(NC(=O)NCCC)N(C)C(=O)N1C (centres unmarked)	16.8%
COC(=O)c1ccc(COc2cccc(C)c2C)cc1	-2.45%
Cc1ccc(C(=O)O/N=C(\N)c2ccccn2)cc1Cl	19.1%
Cn1c(N)c(C(=O)c2ccc(Cl)cc2)c(=O)n(C)c1=O	-1.07%
O=C(NCc1cccc(Cl)c1)C1CCC(=O)N(C2CC2)C1 (centres unmarked)	5.89%
CN(CCC#N)C(=O)CC1(Cc2ccccc2)CCOC(C)(C)C1 (centres unmarked)	-11.6%
CN1CC(=O)N(C)c2nc(Br)n(C)c2C1=O	-6.36%
O=C(N/N=C/c1ccc(Sc2ccccn2)o1)c1cc2ccccc2cc1O	12%
CCC(=O)OC1c2ccccc2C(=O)N1Cc1ccccc1 (centres unmarked)	-10.3%
CC1CCCc2sc3ncn(N)c(=N)c3c21 (centres unmarked)	6.93%
Fc1ccc(-c2cc(C(F)(F)F)nc(-n3cccn3)n2)cc1	-19.2%
C=CCn1c(SCc2c(F)cccc2Cl)nnc1-c1ccco1	-19.3%
CC1CC(C)(C)NC(=S)N1CC(=O)N(C)Cc1ccccc1 (centres unmarked)	-40.1%

SMILES	hERG current change (%, negative = inhibition) at 10uM
COc1ccccc1C(=O)NC(=O)COC(=O)CCS(=O)(=O)c1ccc(C)cc1	-2.87%
COc1ccccc1Nc1nn2c(=O)c3ccc(C(=O)N4CCCCC4)cc3nc2s1	3.25%
CCN(CC)c1ccc(/C=N/n2c(C)nc3ccccc3c2=O)cc1	-7.73%
COC(=O)Nc1ccc(S(=O)(=O)N2CCC(C(=O)N3CCCC(C)C3)CC2)cc1 (centres unmarked)	36.8%
O=C(CN1CCN(CC(=O)Nc2ccc(-c3ccccc3)cc2)CC1)Nc1ccc(F)cc1	-66.2%
O=C(O)c1ccc(N/N=C/c2cccc(F)c2)cc1.O=S(=O)(O)O	6.86%
COCCNC(=S)N1CCC(NC(=O)Nc2ccc(C)cc2)CC1	3.92%
Cc1cccc(NC(=O)Nc2cccc(F)c2)n1	9.39%
COc1cc(C(=O)NC(=S)Nc2ccc3c(c2)C(=O)N(C)C3=O)cc(OC)c1OC	6.17%
Cc1ccc(Nc2nnc(SCC(=O)Nc3cccc(S(=O)(=O)N4CCCCC4)c3)s2)cc1	9.29%
Cn1cnc2c1c(=O)n(Cc1c(Cl)cccc1Cl)c(=O)n2C	-3.36%
Cc1cc(C)nc(N2CCC(C(=O)N3CCN(c4cc(Cl)ccc4C)CC3)CC2)n1	-5.42%
CCn1c(=S)[nH]c2cc(S(=O)(=O)N3CCCCC3)ccc21	2.47%
O=C(N/N=C/c1ccccc1OC(F)F)c1cc(-c2ccncc2)nc2ccccc12	8.54%
Cc1ccc(N2C(=O)C(CC(=O)Nc3cccc(F)c3)N(C3CC3)C2=O)cc1 (centres unmarked)	-7.13%
COc1cccc(C=Nc2ccc(C)c(F)c2)c1O	8.86%
Cc1ccc(NC(=O)CS(=O)CC(=O)N(c2ccccc2F)C(C)C(=O)NC2CCCC2)cc1 (centres unmarked)	-0.926%
CCn1c(-c2ccccc2)c(C(=O)O)c2ccccc21	9.91%
Cc1cc(NC(=O)COC(=O)[C@@H](NS(=O)(=O)c2ccc(Br)cc2)C(C)C)no1	-5.39%
CCOC(=O)C1CCCCN1S(=O)(=O)c1ccc2c(c1)CC(C)N2C(=O)C1CCC1 (centres unmarked)	-16.8%
COCCCNC(=O)CCC(=O)NNc1nc2ccccc2c2nc(C)nn12	19.3%
Cc1c(Cl)cccc1NC(=O)Cn1cc(C(F)(F)F)cc(Cl)c1=O	5.91%
